# Source: article PMC3907550
# Chains of the proteins cited; added tags and fusions are not shown.
# UniProt P84634: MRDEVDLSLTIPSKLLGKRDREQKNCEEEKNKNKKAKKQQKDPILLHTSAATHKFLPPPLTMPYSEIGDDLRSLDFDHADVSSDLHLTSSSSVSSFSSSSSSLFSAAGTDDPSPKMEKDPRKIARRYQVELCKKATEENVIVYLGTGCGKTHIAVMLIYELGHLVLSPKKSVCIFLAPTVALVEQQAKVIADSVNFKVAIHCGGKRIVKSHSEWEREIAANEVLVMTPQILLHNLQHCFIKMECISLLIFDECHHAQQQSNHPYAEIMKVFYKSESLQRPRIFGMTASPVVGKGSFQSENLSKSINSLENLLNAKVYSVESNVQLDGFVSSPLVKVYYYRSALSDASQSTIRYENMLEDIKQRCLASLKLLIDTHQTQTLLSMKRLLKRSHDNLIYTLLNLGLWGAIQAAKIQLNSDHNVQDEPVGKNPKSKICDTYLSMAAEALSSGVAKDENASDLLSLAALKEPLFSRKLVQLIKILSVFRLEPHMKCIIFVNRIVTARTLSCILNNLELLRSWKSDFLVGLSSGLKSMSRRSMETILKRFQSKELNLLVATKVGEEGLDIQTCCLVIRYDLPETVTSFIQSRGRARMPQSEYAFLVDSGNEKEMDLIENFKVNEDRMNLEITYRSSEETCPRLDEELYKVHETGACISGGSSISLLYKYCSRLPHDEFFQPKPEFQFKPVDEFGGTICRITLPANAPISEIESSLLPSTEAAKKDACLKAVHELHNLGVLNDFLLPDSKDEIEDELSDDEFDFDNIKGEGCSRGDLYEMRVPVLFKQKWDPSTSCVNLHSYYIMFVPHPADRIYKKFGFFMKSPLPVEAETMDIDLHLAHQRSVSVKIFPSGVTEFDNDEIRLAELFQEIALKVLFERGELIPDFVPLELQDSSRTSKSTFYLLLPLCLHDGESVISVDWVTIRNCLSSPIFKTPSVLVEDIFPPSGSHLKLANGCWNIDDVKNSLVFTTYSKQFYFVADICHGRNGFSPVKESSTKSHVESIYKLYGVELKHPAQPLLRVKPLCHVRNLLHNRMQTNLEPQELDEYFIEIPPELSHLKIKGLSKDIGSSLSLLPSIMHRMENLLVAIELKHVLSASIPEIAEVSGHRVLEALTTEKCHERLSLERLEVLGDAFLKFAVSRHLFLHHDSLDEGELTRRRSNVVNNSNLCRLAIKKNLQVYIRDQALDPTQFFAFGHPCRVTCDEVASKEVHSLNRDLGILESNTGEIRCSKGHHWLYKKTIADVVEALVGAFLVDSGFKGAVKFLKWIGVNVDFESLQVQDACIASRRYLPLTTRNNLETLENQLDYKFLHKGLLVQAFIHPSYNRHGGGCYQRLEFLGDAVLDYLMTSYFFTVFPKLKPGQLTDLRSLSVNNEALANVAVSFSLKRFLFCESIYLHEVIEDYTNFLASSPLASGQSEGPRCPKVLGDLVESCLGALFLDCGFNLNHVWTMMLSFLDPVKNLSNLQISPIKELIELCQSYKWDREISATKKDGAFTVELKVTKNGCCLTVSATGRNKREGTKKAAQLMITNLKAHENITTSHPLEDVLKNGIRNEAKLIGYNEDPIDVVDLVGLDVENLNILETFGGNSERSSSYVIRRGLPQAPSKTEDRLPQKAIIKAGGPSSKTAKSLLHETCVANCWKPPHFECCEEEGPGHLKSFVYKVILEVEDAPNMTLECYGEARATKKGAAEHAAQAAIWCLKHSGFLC
# UniProt Q9LZG0: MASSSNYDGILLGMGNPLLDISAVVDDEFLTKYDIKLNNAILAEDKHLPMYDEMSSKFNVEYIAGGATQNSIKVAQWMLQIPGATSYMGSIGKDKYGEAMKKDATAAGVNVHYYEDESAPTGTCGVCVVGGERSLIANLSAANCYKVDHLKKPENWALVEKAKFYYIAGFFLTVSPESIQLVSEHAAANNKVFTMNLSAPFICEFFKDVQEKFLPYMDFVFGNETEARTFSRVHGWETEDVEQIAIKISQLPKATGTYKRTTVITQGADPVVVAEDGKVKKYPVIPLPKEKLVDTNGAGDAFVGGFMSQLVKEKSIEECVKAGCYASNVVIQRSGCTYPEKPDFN
# These are yes or no findings as the source states them, for the method shown. For some of these results: Binding seen in cells or lysates may run through a third protein. Some results given as binding are weak or reduced against the parent protein; the word gives no strength. For some of these results: Where a sequence is shown, tags or fusion partners need not be part of it.
# How the values were obtained:
# [1] = molecular target: T1, dsRNA binding protein 4 (DRB4), full-length, fused to the N- or C-terminal portion of YFP (BiFC) (UniProt Q8H1D4); assay: split reporter; BiFC of YFP (YN + YC fusions) in N. benthamiana leaf epidermal cells, agroinfiltration, confocal microscopy 48 h post-infiltration
# T1 sequence: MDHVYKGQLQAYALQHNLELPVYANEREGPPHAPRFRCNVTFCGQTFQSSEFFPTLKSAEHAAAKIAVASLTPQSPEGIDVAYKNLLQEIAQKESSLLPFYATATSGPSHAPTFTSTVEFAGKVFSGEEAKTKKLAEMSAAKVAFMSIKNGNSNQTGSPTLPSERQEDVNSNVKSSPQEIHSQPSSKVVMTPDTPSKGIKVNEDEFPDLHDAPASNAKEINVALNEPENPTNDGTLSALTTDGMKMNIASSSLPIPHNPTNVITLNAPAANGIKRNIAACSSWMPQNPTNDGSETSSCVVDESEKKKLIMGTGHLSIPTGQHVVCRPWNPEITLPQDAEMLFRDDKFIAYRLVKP
# [2] = molecular target: Dicer-like 4 (DCL4), full-length, fused to the N- or C-terminal portion of YFP (BiFC) (UniProt P84634); assay: as above
# [3] = molecular target: T2, SnRK1.2 (SNF1-related kinase 1), full-length, yeast two-hybrid fusion (Arabidopsis) (UniProt P92958); assay: two-hybrid; baits as GAL4 DNA binding domain fusions, preys as GAL4 activation domain fusions, yeast Y190; growth on medium lacking histidine with 50 mM aminotriazole; LacZ filter-lift assay
# T2 sequence: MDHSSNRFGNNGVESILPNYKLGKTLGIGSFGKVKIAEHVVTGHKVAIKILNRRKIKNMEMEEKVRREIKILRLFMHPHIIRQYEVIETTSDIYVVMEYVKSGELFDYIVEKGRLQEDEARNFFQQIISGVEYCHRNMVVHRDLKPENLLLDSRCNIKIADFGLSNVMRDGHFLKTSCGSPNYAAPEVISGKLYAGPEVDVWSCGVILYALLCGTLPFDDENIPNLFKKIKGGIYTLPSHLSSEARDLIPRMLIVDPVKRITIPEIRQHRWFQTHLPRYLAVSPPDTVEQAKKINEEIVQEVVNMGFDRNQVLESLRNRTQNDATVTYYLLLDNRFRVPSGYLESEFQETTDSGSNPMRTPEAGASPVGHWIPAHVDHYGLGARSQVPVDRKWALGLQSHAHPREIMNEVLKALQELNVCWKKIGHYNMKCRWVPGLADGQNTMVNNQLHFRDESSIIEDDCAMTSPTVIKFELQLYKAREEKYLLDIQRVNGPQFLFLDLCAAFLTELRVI
# [4] = molecular target: T3, SnRK1.2 kinase domain (SnRK1-KD; amino acids 1-343), yeast two-hybrid fusion (Arabidopsis) (UniProt P92958); assay: as above
# T3 sequence: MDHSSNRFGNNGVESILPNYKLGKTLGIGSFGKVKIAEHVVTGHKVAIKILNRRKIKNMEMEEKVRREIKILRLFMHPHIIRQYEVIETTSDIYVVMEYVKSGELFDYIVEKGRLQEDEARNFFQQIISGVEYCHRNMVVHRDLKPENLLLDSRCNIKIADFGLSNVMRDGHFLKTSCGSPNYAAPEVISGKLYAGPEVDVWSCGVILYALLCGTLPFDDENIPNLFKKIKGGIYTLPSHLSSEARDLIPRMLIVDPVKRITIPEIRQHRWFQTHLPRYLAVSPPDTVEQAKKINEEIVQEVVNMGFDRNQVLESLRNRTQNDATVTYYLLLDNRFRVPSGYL
substance,measurement,setting,value
"Dicer-like 4 (DCL4), full-length, fused to the N- or C-terminal portion of YFP (BiFC) (from UniProt P84634 1-1702) (enzyme)",binding,[1],binds
"Adenosine kinase 2 (ADK2), full-length, fused to the N- or C-terminal portion of YFP (BiFC) (from UniProt Q9LZG0 1-345) (enzyme)",binding,[2],no binding
"Adenosine kinase 2 (ADK2), yeast two-hybrid fusion (from UniProt Q9LZG0 1-345) (enzyme)",binding,[3],binds
same,binding,[4],binds
